Data published in PubChem BioAssay AID624417 (National Center for Advancing Translational Sciences (NCATS), 2012).
About 6,400 (1.6%) of roughly 410,000 compounds were called active. Inconclusive means that the source gave no clear call. Such entries were picked first, then a sample of the others. The call rests on the fitted dose curve; in most records, active means well fitted inhibition curve with a large enough effect; inconclusive means small, poorly fitted or top-dose-only effect; inactive means no such curve, though single readings can be large or run the other way. No potency is given beside an inconclusive call; the fits are too rough.

molecular target: Glucagon-like peptide 1 receptor (Homo sapiens) (UniProt P43220); assay: qHTS of GLP-1 Receptor Inverse Agonists (Inhibition Mode); conditions: HEK293 GLP-1R CRE-luciferase, luminescence, 24 h, GLP-1R form is constitutively active; series mostly up to 38.3 µM; further: nearly all actives have a fitted effect of over 55% in size
How it was run: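 GLP-1R inverse agonism mode: basal reporter luminescence in engineered HEK293 cells measured after one day of compound exposure at 37 deg C, with a 12 min room-temperature detection step.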
Potency means the concentration at half of the fitted maximal effect; tags describe the fitted curve by direction and shape.

Chain of UniProt P43220 (P43220 whole entry, looked up): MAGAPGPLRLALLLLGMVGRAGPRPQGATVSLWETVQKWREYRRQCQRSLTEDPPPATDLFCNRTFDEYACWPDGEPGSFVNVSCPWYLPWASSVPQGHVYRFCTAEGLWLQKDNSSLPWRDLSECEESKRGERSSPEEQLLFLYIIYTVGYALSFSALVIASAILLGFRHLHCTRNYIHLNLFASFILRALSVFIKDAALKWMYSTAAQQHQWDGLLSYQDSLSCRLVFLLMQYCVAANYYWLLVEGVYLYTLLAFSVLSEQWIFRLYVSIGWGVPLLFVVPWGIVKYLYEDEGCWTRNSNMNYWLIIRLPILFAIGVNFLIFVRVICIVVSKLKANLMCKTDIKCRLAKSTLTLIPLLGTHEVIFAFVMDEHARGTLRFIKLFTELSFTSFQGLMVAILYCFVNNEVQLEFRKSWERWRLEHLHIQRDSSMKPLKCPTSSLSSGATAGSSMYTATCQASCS

Compound | Potency
CCCCCC(=O)Nc1cc(S(=O)(=O)N2CCOCC2)ccc1N1CCCCC1 | inconclusive [inhibitor, single point]
CCN(c1cccc(C)c1)S(=O)(=O)c1cnc[nH]1 | inactive
CC(=O)c1cccc(NC(=O)Cc2noc3ccccc23)c1 | inactive
CCN(CC)CCCn1c(C)cc2c(c1=O)C(c1ccc(OC)c(OC)c1OC)C(C#N)=C(N)O2 (stereo not given) | inactive
COc1ccccc1CNC(=O)COC(=O)c1ccc(S(=O)(=O)N2CCCCC2)cc1 | inactive
CN1CCN(Cc2cccc(Oc3ccc(Cl)cc3)c2)CC1 | inconclusive [inhibitor, partial curve, poor fit]
COc1ccc(/C=C/C(=O)c2cc3c(cc2N)OCO3)cc1 | inactive
COc1ccc(CC(=O)Nc2cc(-c3cn4cccnc4n3)ccc2OC)cc1 | inactive
Cc1c(C(=O)N(Cc2ccco2)Cc2ccccc2Cl)oc2ccc(F)cc12 | inconclusive [inhibitor, partial curve, poor fit]
CN(C)c1ccc(NC(=O)CSc2nc3ccsc3c(=O)n2CCCCCC(=O)O)cc1 | inactive
COc1ccc(-c2csc(C(C)(O)c3cccc(F)c3)n2)cc1OC (stereo not given) | inactive
COC(=O)c1cc2sccc2n1CC(=O)N(C)c1ccccc1 | inconclusive [inhibitor, partial curve]
O=C(Cn1nnc(-c2cc(C(F)(F)F)cc(C(F)(F)F)c2)n1)NNC(=S)Nc1ccc(Cl)cc1 | inconclusive [inhibitor, single point]
CC(C)Oc1ccc(C(=O)Nc2ccc(S(=O)(=O)N3CCN(C)CC3)cc2)cc1 | inconclusive [inhibitor, single point]
Cc1ccc(CNCC(O)(c2ccc(F)cc2)c2ccc(F)cc2)cc1 | inconclusive [inhibitor, single point]
CCOc1ccccc1N1CCN(C(=S)NCc2ccc(Cl)cc2)CC1 | active: 11.2 µM
Cc1ccccc1N1CCN(C2CCCN(C(=O)c3cn4cccc(C)c4n3)C2)CC1 (stereo not given) | inconclusive [inhibitor, partial curve, poor fit]
O=S(=O)(c1cccc(S(=O)(=O)N2CCC(n3nnc4ccccc43)CC2)c1)N1CCCCC1 | inconclusive [inhibitor, partial curve, poor fit]
COc1ccc(OC(C)C(=O)NCc2nc(-c3cccc(C)c3)no2)cc1 (stereo not given) | inconclusive [inhibitor, partial curve, poor fit]
O=C(C(=O)N1CCCc2ccccc21)N1CCCc2ccccc21 | inactive
Cc1occc1-c1nnc(SCC(=O)NCCc2ccccc2)n1C(C)c1ccccc1 (stereo not given) | inconclusive [inhibitor, partial curve, poor fit]
COc1ccc(NC(=S)N(CCC(C)C)C2CCN(C(C)C)CC2)cc1 | inconclusive [inhibitor, partial curve, poor fit]

Compound | Potency
Cc1ccc(NS(=O)(=O)c2cccc(C(=O)NCC(c3cccs3)N(C)C)c2)cc1 (stereo not given) | inconclusive [inhibitor, partial curve, poor fit]
O=C(CCn1c(=O)oc2ccccc21)Nc1cccc(Br)c1 | inconclusive [inhibitor, single point]
Cc1ccc([C@H]2C[C@H](O)[C@@H](n3cc(COC(=O)c4ccccc4)nn3)CN2CC2CCCCC2)cc1 | inactive
Cc1ccccc1-c1cc(C(=O)NCc2cccc(Br)c2)n(CC2CC(c3cccnc3)=NO2)n1 (stereo not given) | inconclusive [inhibitor, partial curve, poor fit]
O=C(/C=C/c1ccc(Cl)cc1)NC(=S)Nc1ccc(NC(=O)c2ccco2)cc1 | inconclusive [inhibitor, single point]
CC(=O)Nc1ccc2c(c1)CCCN2C(=O)c1ccccc1 | inactive
S=c1[nH]nc(COc2ccccc2)n1Cc1ccccc1 | inconclusive [inhibitor, single point]
COC(=O)c1ccccc1-n1c(CCC(=O)O)ccc1-c1ccc(F)cc1 | inconclusive [inhibitor, single point]
CNc1oc(-c2cccc3ccccc23)nc1C#N | inactive
CCOC(=O)C1=C(CN(C)Cc2ccccc2)NC(=O)NC1c1ccc(OC)cc1 (stereo not given) | inconclusive [inhibitor, single point]
Cn1c(=O)c(C(=O)CN2CCCCC2)c(N)n(Cc2ccccc2)c1=O | inconclusive [inhibitor, single point]
Cc1cc(NC(=O)CSc2nc3c([nH]c4ccccc43)c(=O)n2-c2cccc(C(F)(F)F)c2)no1 | inconclusive [inhibitor, partial curve, poor fit]
COc1ccc(Cc2nnc(NN)[nH]c2=O)cc1OC | inactive
O=C(OCCN1CCCCC1)c1c[nH]c2ccccc12 | inactive
Cc1ccc(NC(=O)c2ccc(CNS(=O)(=O)c3ccc4c(c3)C(C)(C)C(=O)N4C)cc2)cc1F | inactive
N#CCC(=O)N/N=C\c1ccccc1OC/C=C/c1ccccc1 | inconclusive [inhibitor, single point]
Cc1ccc(NC(=O)Cn2c(=O)c3cccn3c3ccccc32)c(Cl)c1 | inconclusive [inhibitor, partial curve, poor fit]
CCCCN(C)CCNC(=O)CN1C(=O)CSc2ccc(S(=O)(=O)N3CCCCC3)cc21 | inconclusive [inhibitor, single point]
COc1ccccc1-c1nnc(NC(=O)c2ccc(S(=O)(=O)N3CCCC3)cc2)o1 | inconclusive [inhibitor, partial curve, poor fit]
CCC(C)C1NC(=S)N(Cc2ccccc2)C1=O (stereo not given) | inconclusive [inhibitor, partial curve, poor fit]
COc1ccccc1N1CCN(S(=O)(=O)CCNC(=O)Cc2ccc(Cl)cc2)CC1 | inconclusive [inhibitor, single point]
C[C@]12c3[nH]c4cc(-c5ccco5)ccc4c3CCN1C(=O)[C@@H](CC(=O)NCCC1=CCCCC1)C[C@@H]2C(=O)N1CCCCC1 | inconclusive [inhibitor, partial curve, poor fit]

Compound | Potency
Cc1snc(S(=O)(=O)/C(C#N)=N/Nc2ccc(C(F)(F)F)cc2)c1C#N | inconclusive [inhibitor, partial curve, poor fit]
Cn1c(=O)c2cc(NC(=O)NCc3ccccc3)ccc2n1C/C=C/c1ccccc1 | inconclusive [inhibitor, partial curve, poor fit]
CC(NC(=O)Cc1cccc(C(F)(F)F)c1)c1ccc(F)cc1 (stereo not given) | inconclusive [inhibitor, single point]
CCN1CCN(CCCNC(=O)Cn2c(-c3cccs3)cc3cc(F)ccc32)CC1 | inconclusive [inhibitor, single point]
COc1cccc(C(=O)Nc2ccc3ccccc3c2)c1 | inconclusive [inhibitor, partial curve, poor fit]
CCOC(=O)c1cc(-c2ccccc2)nn1CC1CC(c2ccc(OC)cc2)=NO1 (stereo not given) | inconclusive [inhibitor, partial curve, poor fit]
Cc1cc2c(cc1S(=O)(=O)CCC(=O)N1CCCCC1C)OCC(=O)N2 (stereo not given) | inactive
COCc1cccc(-c2csc(C(C)(O)c3cccc(F)c3)n2)c1 (stereo not given) | inconclusive [inhibitor, single point]
CC[n+]1c(-c2ccccc2)csc1Nc1c(C)n(C)n(-c2ccccc2)c1=O | inconclusive [inhibitor, single point]
CC1CCc2sc(C(=O)Nc3ccc(N4CCOCC4)cc3)cc2C1 (stereo not given) | inconclusive [inhibitor, single point]
Cc1ccc(N=c2ssnc2Cl)cc1 | inconclusive [inhibitor, single point]
O=C(c1cc(C2CC2)nn1-c1ccccc1)N1CCN(Cc2ccccc2F)CC1 | active: 8.91 µM
O=C(NCC1CC1)c1onc(CSc2ccc(F)cc2)c1C(=O)NCC1CC1 | inconclusive [inhibitor, single point]
CC(NS(=O)(=O)c1ccccc1)C(c1cccs1)N1CCN(c2ccccc2)CC1 (stereo not given) | inconclusive [inhibitor, single point]
CC(C)(C)OC(=O)NCCc1nnc(SCc2ccc(Cl)cc2)o1 | inconclusive [inhibitor, single point]
CN(C)/C=C1\C(=O)N(c2ccc(Cl)cc2)CS1(=O)=O | inactive
C[C@H](CO)N1C[C@H](C)[C@H](CN(C)S(=O)(=O)c2cn(C)cn2)Oc2ccc(NC(=O)Nc3ccc(C(F)(F)F)cc3)cc2CC1=O | inconclusive [inhibitor, full curve]
O=C(NC1CCCCC1)C(c1ccc(F)cc1)N(C(=O)c1csnn1)C1CCCC1 (stereo not given) | inconclusive [inhibitor, single point]
CC(NC(=S)NCCc1ccccc1)C(c1cccs1)N1CCN(C)CC1 (stereo not given) | inconclusive [inhibitor, single point]
CCOC(=O)C1(C)CCN1C(=O)c1cc(-c2ccc(Cl)cc2)oc1C (stereo not given) | inconclusive [inhibitor, single point]
COC1CCN(C(=O)c2ccc3oc(Cc4ccc(Cl)cc4)nc3c2)CC1 | inconclusive [inhibitor, partial curve, poor fit]
